Measurements: ChEMBL document CHEMBL5674866 (J Biol Chem, 2015)

Legend:
[1] = system: KYSE-150 cell line; test: Effect on cellular post-translational modifications on histone H3 (KSTGGKAPR) - K9 dimethylated, K14 unmethylated in human KYSE-150 cells assessed as fold change by mass spectrometric analysis; type: functional
[2] = system: KYSE-150 cell line; test: Effect on cellular post-translational modifications on histone H4 (KVLR) - K20 monomethylated in human KYSE-150 cells assessed as relative abundance at 5 by mass spectrometric analysis (reference value: 27.4+/-8); type: functional; settings: dose 5 µM
Procedure, shortened: (§1)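 Histones acid-extracted from SMYD2-overexpressing KYSE-150 cells treated with vehicle or 5 μM inhibitor. Samples derivatized with propionic anhydride, then trypsin-digested for 6 h at 37 °C. Each modification's relative abundance on a peptide sequence, as a percentage, was quantified from MS and MS/MS spectra and compared with vehicle.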

[3] = molecular target: Serine/threonine-protein kinase PLK4 (Homo sapiens, UniProt O00444); test: Inhibition of human PLK4 by discoverX kinome scan assay
[4] = molecular target: Serine/threonine-protein kinase Nek7 (Homo sapiens, UniProt Q8TDX7); test: Inhibition of human NEK7 by discoverX kinome scan assay
Sequence of UniProt Q8TDX7 (Q8TDX7 whole entry): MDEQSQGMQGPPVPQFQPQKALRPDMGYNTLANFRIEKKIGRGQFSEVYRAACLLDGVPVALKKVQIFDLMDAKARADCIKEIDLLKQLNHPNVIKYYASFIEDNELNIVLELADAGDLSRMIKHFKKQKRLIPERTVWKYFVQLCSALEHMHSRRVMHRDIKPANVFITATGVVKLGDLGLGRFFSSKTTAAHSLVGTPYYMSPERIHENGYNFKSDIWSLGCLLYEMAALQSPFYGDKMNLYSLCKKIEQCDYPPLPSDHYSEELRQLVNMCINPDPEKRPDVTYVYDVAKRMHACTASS

[5] = Inhibition of human ABL1 pY253F mutant by discoverX kinome scan assay
[6] = molecular target: Phosphatidylinositol 4,5-bisphosphate 3-kinase catalytic subunit alpha isoform (Homo sapiens, UniProt P42336, Q546K); test: Inhibition of human PIK3CA Q546K mutant by discoverX kinome scan assay
[7] = molecular target: Phosphatidylinositol 3-kinase C2 domain-containing subunit gamma (Homo sapiens, UniProt O75747); test: Inhibition of human PIK3C2G by discoverX kinome scan assay
[8] = molecular target: Cyclin-dependent kinase 18 (Homo sapiens, UniProt Q07002); test: Inhibition of human PCTK3 by discoverX kinome scan assay
Sequence of UniProt Q07002 (Q07002 whole entry): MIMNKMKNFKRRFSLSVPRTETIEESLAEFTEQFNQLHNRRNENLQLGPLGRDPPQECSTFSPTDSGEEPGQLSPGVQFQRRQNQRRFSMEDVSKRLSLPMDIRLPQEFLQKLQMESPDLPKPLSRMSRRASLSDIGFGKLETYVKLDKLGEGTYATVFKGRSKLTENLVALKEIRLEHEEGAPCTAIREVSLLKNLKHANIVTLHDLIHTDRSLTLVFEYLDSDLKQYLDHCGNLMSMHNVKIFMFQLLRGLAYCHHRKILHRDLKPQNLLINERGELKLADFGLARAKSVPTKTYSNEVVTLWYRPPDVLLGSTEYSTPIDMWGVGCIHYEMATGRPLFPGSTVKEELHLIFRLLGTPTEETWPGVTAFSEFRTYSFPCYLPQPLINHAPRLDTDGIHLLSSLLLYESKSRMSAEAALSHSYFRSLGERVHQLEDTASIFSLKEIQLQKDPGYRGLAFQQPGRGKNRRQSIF

[9] = molecular target: Serine/threonine-protein kinase PAK 6 (Homo sapiens, UniProt Q9NQU5); test: Inhibition of human PAK6 by discoverX kinome scan assay
[10] = molecular target: Serine/threonine-protein kinase 38-like (Homo sapiens, UniProt Q9Y2H1); test: Inhibition of human NDR2 by discoverX kinome scan assay
Sequence of UniProt Q9Y2H1 (Q9Y2H1 whole entry): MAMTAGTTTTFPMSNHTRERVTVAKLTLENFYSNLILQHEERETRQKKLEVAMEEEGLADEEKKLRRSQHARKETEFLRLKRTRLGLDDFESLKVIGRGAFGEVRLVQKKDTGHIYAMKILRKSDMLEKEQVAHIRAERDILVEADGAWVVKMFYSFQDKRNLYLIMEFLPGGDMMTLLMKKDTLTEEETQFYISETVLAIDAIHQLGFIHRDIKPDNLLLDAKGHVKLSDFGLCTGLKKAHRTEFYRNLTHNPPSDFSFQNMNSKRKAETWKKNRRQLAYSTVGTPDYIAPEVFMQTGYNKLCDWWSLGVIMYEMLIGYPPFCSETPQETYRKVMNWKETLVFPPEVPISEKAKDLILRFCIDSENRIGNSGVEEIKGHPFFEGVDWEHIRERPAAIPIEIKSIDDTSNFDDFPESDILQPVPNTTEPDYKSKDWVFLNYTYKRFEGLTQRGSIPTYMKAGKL

[11] = system: KYSE-150 cell line; test: Effect on cellular post-translational modifications on histone H4 (KVLR) - K20 unmethylated in human KYSE-150 cells assessed as fold change by mass spectrometric analysis; type: functional; procedure, shortened: as §1
[12] = molecular target: Phosphorylase b kinase gamma catalytic chain, skeletal muscle/heart isoform (Homo sapiens, UniProt Q16816); test: Inhibition of human PHKG1 by discoverX kinome scan assay
Sequence of UniProt Q16816 (Q16816 whole entry): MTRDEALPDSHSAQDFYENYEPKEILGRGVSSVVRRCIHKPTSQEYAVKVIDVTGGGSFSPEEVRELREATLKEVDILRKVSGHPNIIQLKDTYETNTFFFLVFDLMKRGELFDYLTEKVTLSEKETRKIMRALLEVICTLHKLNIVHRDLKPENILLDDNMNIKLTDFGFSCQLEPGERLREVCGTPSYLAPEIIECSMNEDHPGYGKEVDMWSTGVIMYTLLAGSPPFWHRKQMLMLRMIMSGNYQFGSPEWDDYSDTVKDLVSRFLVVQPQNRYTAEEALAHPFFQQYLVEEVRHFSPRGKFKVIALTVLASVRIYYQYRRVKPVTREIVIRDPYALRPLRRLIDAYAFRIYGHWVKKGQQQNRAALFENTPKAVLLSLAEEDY

[13] = molecular target: Myosin light chain kinase family member 4 (Homo sapiens, UniProt Q86YV6); test: Inhibition of human MYLK4 by discoverX kinome scan assay
Sequence of UniProt Q86YV6 (Q86YV6 whole entry): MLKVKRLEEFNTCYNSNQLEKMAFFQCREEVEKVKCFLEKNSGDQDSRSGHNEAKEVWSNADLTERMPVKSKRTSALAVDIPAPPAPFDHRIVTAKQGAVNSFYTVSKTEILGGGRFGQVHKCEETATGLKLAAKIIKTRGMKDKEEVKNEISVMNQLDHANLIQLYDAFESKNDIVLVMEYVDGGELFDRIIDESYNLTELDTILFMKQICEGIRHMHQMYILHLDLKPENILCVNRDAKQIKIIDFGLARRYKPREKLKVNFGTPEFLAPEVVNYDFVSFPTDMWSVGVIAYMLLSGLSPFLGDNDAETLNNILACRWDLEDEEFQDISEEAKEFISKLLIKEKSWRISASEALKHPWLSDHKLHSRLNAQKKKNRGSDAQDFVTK

[14] = molecular target: Serine/threonine-protein kinase pim-1 (Homo sapiens, UniProt P11309); test: Inhibition of human PIM1 by discoverX kinome scan assay
Sequence of UniProt P11309 (P11309 whole entry): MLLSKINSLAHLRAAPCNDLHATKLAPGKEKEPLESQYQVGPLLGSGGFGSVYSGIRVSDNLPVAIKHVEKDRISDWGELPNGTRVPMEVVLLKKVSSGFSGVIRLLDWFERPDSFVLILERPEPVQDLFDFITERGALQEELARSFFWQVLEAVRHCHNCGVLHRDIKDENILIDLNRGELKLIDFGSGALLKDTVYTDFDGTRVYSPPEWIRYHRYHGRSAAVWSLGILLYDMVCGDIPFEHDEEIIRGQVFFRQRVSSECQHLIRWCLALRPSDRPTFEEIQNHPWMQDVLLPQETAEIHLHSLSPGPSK

[15] = system: MX1; test: Antiproliferative activity against human MX1 cells measured after 7 day by celltitre-glo luminescent assay; type: functional, cell-based; settings: MX1, 168 h
[16] = system: KYSE-70 cell line; test: Antiproliferative activity against human KYSE-70 cells measured after 7 day by celltitre-glo luminescent assay; type: functional, cell-based; settings: KYSE-70, 168 h
[17] = molecular target: Membrane-associated tyrosine- and threonine-specific cdc2-inhibitory kinase (Homo sapiens, UniProt Q99640); test: Inhibition of human PKMYT1 by discoverX kinome scan assay
Sequence of UniProt Q99640 (Q99640 whole entry): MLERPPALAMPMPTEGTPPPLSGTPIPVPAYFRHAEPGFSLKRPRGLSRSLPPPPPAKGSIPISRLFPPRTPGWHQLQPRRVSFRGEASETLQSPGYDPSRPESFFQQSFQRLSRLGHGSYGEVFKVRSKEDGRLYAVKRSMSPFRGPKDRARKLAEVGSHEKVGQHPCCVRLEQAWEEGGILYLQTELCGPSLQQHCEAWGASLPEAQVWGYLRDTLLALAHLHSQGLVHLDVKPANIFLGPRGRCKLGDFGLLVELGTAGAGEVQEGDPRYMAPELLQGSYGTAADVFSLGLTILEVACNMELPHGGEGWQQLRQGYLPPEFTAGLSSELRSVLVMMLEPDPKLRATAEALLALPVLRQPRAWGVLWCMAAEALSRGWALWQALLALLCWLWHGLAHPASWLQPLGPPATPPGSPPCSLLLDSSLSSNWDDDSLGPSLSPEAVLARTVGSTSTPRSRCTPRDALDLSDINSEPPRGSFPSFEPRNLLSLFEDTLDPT

[18] = system: KYSE-150 cell line; test: Effect on cellular post-translational modifications on histone H3 (GKGGKGLGKGGAKR) - K5 unmethylated, K8 unmethylated, K12 unmethylated, K16 acetylated in human KYSE-150 cells assessed as fold change by mass spectrometric analysis; type: functional
[19] = system: KYSE-150 cell line; test: Effect on cellular post-translational modifications on histone H3 (TKQTAR) - K4 tri-methylated in human KYSE-150 cells assessed as relative abundance at 5 by mass spectrometric analysis (reference value: 1.4+/-0.3No_unit); type: functional; settings: dose 5 µM; procedure, shortened: as §1
[20] = system: KYSE-150 cell line; test: Effect on cellular post-translational modifications on histone H4 (KVLR) - K20 dimethylated in human KYSE-150 cells assessed as fold change by mass spectrometric analysis; type: functional; procedure, shortened: as §1
[21] = molecular target: Serine/threonine-protein kinase Nek1 (Homo sapiens, UniProt Q96PY6); test: Inhibition of human NEK1 by discoverX kinome scan assay
[22] = system: KYSE-150 cell line; test: Effect on cellular post-translational modifications on histone H3 (KSTGGKAPR) - K9 trimethylated, K14 acetylated in human KYSE-150 cells assessed as fold change by mass spectrometric analysis; type: functional; procedure, shortened: as §1
[23] = molecular target: Mitogen-activated protein kinase 11 (Homo sapiens, UniProt Q15759); test: Inhibition of human p38-beta by discoverX kinome scan assay
[24] = molecular target: Phosphatidylinositol 4,5-bisphosphate 3-kinase catalytic subunit alpha isoform (Homo sapiens, UniProt P42336, E542K); test: Inhibition of human PIK3CA E542K mutant by discoverX kinome scan assay
[25] = molecular target: Protein kinase C delta type (Homo sapiens, UniProt Q05655); test: Inhibition of human PRKCD by discoverX kinome scan assay
Sequence of UniProt Q05655 (Q05655 whole entry, canonical isoform): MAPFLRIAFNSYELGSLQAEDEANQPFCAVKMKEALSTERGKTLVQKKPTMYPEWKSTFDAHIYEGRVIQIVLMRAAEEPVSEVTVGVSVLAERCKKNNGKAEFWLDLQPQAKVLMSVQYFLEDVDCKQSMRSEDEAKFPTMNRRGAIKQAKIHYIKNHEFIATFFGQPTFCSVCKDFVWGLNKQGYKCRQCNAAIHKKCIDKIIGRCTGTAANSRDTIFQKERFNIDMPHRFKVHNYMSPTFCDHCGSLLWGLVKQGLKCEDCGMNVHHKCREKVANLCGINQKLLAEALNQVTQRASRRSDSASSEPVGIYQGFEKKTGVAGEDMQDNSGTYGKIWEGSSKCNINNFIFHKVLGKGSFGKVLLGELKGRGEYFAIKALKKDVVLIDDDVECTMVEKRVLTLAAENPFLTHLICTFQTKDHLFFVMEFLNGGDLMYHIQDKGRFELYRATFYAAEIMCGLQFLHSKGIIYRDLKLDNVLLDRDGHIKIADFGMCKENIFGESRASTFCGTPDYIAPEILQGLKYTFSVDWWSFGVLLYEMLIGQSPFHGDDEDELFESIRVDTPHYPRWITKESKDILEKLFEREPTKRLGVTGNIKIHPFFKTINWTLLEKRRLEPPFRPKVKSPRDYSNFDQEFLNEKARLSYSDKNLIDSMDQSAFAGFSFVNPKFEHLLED

[26] = molecular target: Phosphatidylinositol 4,5-bisphosphate 3-kinase catalytic subunit gamma isoform (Homo sapiens, UniProt P48736); test: Inhibition of human PIK3CG by discoverX kinome scan assay
Sequence of UniProt P48736 (P48736 whole entry): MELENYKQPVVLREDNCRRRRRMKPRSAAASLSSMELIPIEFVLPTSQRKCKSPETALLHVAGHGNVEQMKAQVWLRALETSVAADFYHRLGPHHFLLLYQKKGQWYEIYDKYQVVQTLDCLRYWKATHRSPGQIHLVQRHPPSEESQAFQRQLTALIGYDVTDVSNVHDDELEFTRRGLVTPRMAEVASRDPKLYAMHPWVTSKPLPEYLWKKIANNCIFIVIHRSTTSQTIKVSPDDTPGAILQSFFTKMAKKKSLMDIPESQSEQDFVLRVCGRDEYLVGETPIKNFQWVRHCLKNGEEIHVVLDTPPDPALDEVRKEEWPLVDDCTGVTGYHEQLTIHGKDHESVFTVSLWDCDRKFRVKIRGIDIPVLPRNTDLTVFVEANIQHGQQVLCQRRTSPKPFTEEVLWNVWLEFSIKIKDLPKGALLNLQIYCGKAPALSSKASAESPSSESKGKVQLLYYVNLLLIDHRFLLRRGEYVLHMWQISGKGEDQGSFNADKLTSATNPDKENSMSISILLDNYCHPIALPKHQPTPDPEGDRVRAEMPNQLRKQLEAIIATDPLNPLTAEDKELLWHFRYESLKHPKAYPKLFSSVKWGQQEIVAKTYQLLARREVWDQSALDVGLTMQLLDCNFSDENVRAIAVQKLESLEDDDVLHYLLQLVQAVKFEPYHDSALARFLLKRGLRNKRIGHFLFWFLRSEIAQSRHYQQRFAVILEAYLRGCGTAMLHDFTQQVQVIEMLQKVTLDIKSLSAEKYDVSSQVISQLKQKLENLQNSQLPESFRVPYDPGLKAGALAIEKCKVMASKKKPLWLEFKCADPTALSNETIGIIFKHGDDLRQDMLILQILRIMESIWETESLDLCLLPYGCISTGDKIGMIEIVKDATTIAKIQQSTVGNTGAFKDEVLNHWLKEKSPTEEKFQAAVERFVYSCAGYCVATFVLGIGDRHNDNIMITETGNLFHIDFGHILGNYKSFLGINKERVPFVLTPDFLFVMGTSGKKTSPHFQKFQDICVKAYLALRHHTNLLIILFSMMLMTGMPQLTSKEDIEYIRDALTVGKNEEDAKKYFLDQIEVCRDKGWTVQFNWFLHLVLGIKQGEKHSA

[27] = molecular target: Serine/threonine-protein kinase Nek6 (Homo sapiens, UniProt Q9HC98); test: Inhibition of human NEK6 by discoverX kinome scan assay
[28] = system: KYSE-150 cell line; test: Antiproliferative activity against human KYSE-150 cell line measured after 7 days by celltitre-glo luminescent assay; type: functional, cell-based; settings: KYSE-150, 168 h
[29] = Inhibition of human EGFR A750P by discoverX kinome scan assay
[30] = system: KYSE-150 cell line; test: Effect on cellular post-translational modifications on histone H3 (KSTGGKAPR) - K9 monomethylated, K14 unmethylated in human KYSE-150 cells assessed as fold change by mass spectrometric analysis; type: functional
[31] = Inhibition of human EGFR P753S by discoverX kinome scan assay
[32] = system: KYSE-150 cell line; test: Effect on cellular post-translational modifications on histone H3 (KSTGGKAPR) - K9 acetylated, K14 unmethylated in human KYSE-150 cells assessed as fold change by mass spectrometric analysis; type: functional
[33] = molecular target: cAMP-dependent protein kinase catalytic subunit beta (Homo sapiens, UniProt P22694); test: Inhibition of human PKAC-beta by discoverX kinome scan assay
[34] = molecular target: Myosin light chain kinase 2, skeletal/cardiac muscle (Homo sapiens, UniProt Q9H1R3); test: Inhibition of human MYLK2 by discoverX kinome scan assay
[35] = molecular target: Serine/threonine-protein kinase pim-3 (Homo sapiens, UniProt Q86V86); test: Inhibition of human PIM3 by discoverX kinome scan assay
[36] = molecular target: Muscle, skeletal receptor tyrosine-protein kinase (Homo sapiens, UniProt O15146); test: Inhibition of human MUSK by discoverX kinome scan assay
[37] = system: KYSE-150 cell line; test: Effect on cellular post-translational modifications on histone H3 (KSTGGKAPR) - K9 unmethylated, K14 unmethylated in human KYSE-150 cells assessed as relative abundance at 5 by mass spectrometric analysis (reference value: 10.2+/-0.3); type: functional; settings: dose 5 µM; procedure, shortened: as §1
[38] = system: UACC-893; test: Antiproliferative activity against human UACC-893 cells measured after 7 day by celltitre-glo luminescent assay; type: functional, cell-based; settings: UACC-893, 168 h
[39] = Inhibition of human FLT3 autoinhibited mutant by discoverX kinome scan assay

## Cc1cn(CCN2CCN(c3ccccc3-c3cc(C#N)cc(C(=O)NCCCN4CCCC4)c3)CC2)c2ccccc12
[1]
  fold change (FC): 1.1
[2]
  Activity: 31
[3]
  pIC50: < 4.70
[4]
  pIC50: < 4.70
[5]
  pIC50: < 4.70
[6]
  pIC50: < 4.70
[7]
  pIC50: < 4.70
[8]
  pIC50: < 4.70
[9]
  pIC50: < 4.70
[10]
  pIC50: < 4.70
[11]
  fold change (FC): 0.98
[12]
  pIC50: < 4.70
[13]
  pIC50: < 4.70
[14]
  pIC50: < 4.70
[15]
  pIC50: 6.52
[16]
  pIC50: 6.52
[17]
  pIC50: < 4.70
[18]
  fold change (FC): 1.31
[19]
  Activity: 1
[20]
  fold change (FC): 1.07
[21]
  pIC50: < 4.70
[22]
  fold change (FC): 1.1
[23]
  pIC50: < 4.70
[24]
  pIC50: < 4.70
[25]
  pIC50: < 4.70
[26]
  pIC50: < 4.70
[27]
  pIC50: < 4.70
[28]
  pIC50: 6.52
[29]
  pIC50: < 4.70
[30]
  fold change (FC): 0.8
[31]
  pIC50: < 4.70
[32]
  fold change (FC): 0.9
[33]
  pIC50: < 4.70
[34]
  pIC50: < 4.70
[35]
  pIC50: < 4.70
[36]
  pIC50: < 4.70
[37]
  Activity: 10.9
[38]
  pIC50: 6.52
[39]
  pIC50: < 4.70

pIC50: −log10 of the molar value.
